Reference: the RNAGym collection of RNA variant scans (doi:10.1093/nar/gkz1192)
Read counts are not given, so values of variants with three or more changes are uncertain.

B1: CPEB3 Ribozyme (parent)
chain: UAACAGGGGGCCACAGCAGAAGCGUUCACGUCGCAGCCCCUGUCAGAUUCUGGUGAAUCUGCGAAUUCUGCUGUAUAUCUC

Variants of: B1
Test: self-cleavage, relative activity (ratio to wild type); higher = more cleavage; in vitro, sequencing
How it was run: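 Barcoded CPEB3 ribozyme mutants, produced by rounds of error-prone PCR, self-cleaved while being transcribed with T7 RNA polymerase for 5 hours at 37°C and during a subsequent 15 min DNase I step before EDTA was added. Sequencing of template-switched cDNA on Illumina gave cleaved and total reads, and DNA sequencing assigned barcodes to variants. Each variant's relative activity is its cleaved/total read fraction divided by the unmutated ribozyme's fraction, averaged across three batches. A variant needed a minimum of 5 reads.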

Variant | self-cleavage
C17U A35G U80C | 1.19
C17G C38A U43C | 0.08
C17U U54C U60C A65G A77G | 0.12
G16C C40U U41C U60A | 0.08
C17G G24A U60C U78C | 0.28
C17A U26G A35G | 0.07
A15U U31A U54C | 0.33
C17U U43C G53A | 0.68
A18G A20G U51A U60A U67C | 0.21
G16A A21G A35G A56U | 0.17
A18G A21G G24A C29G | 0.31
A18C A77G U78A | 0.11
G16C A75U U78A | 0.19
A15U U25G A57U U69A | 0.11
A15U U43C U58C U67C | 0.08
A15U C27U U43A | 0.17
A18G A20G U67C U72C | 0.25
A15U G33A U80C | 0.09
C17U U41C U60C U80C | 0.2
C17G A64U U69C | 0.12
C17G C40A U49C U54C | 0.2
G16U C17G A35C C71U U78C | 0.06
G16C G24C U43A | 0.05
G16C U41C U54A | 0.16

Variant | self-cleavage
G16U U31C A47G | 0.18
C17U U51C A64G U66G | 0.18
G16U U25C A56U U60A U78C | 0.09
A18G A20U U26A C37U U49C | 0.05
A18C G30A U76C A77U | 0.12
A18C U69C U78C | 0.14
G16A U26A G33C U58C | 0.14
C17A U49A U69A | 0.16
C17U A20G A21G G33A U41C A75G | 0.15
C17U C62U U76A | 0.15
C17U G24C U31A A56U | 0.22
G16C U41A A45G U69C U80G | 0.16
C17U U51A G73A | 1.1
A15U U26C A28U U43C U58C U67C C79U | 0
A15U U31C U51C U72A | 0.25
C17U A20G U26A U31C U66C U69A | 0.08
A18C G30A G36U | 0.16
A15U G19U U54C | 0.09
C17A A35C U49A U58A | 0.14
G16U U41C G52A U69G | 0.22
A15U U31C A35G | 0.88
A15U U31C U41C U43A A65G U78C | 0.08
A15U U26G U51C A56G U72A | 0.12
C17U A21G G24C A35U | 0.2

Variant | self-cleavage
A18G A21G U31A | 0.26
A15U C29A U67C | 0.03
G16U C23U U25C C32U U60A A65U U78C | 0.04
A15U U26G A57C | 0.11
G16C C29A U31A G52U | 0.23
A15U U48C U60A | 0.17
A15U U66A U67A | 0.17
A18G A20U U60C G63A | 0.19
G16U U26A C40U A57G | 0.05
G16A A20G U43C | 0.26
C17G A28U U49C | 0.05
A15U G55A U66C U67C | 0.12
A15U U43G U58A C59U C79A | 0.03
A18C A21G U25C A45U A57G U72C | 0
A18G A20G U43C A64U A65G | 0.29
G16C U25C U31C U41C A65U A77U | 0.05
A18C C34U U41C U49C | 0.15
C17G A35G C59U A75U U80C | 0.36
A18C U41A U43A U51A G55A A57U | 0.26
G16A G30A U43C A45U A57G U74C | 0.16
A15U U43C A45G | 0.21
C17U U31C U67C | 0.08
A15U U54C U78A | 0.61
A15U U25C U31A G42A | 0.19

Variant | self-cleavage
A18G A28G U60A G61U C62U U76A | 0.1
A18C G33A U72C U74A | 0.26
C17U U41G U69C | 0.19
C17A U41C U76C A77G | 0.35
A18G A20G U58C U67C | 0.17
A18G A20G U43G U54A U67C A77G | 0.13
C17U U25A A28C U69A U80C | 0.04
C17U G19U A45U A47G U60A | 0.08
A15U C37U U74C | 0.48
C17U U54A U76A | 0.94
C17G G52A U58A U74A | 0.46
A18C U25C U72A | 0.2
G16C U41A U69A | 0.13
A15U U26C U49C U60C A65G U67A | 0.14
G16A A28G C32U A35U C38U | 0.06
G16A U31A U51A A56G U74C | 0.36
C17G G19A A47G A56G U60C G73A | 0.1
A18G A20G G33A G36U U43C U76C | 0.16
G16A A35U C68G | 0.12
G16A A20U A21G G36A A47G U51C | 0.19
A15U C44U U51C | 0.12
C17U A28U U69A U78C | 0.24
G16C U49C U80C | 0.29
A18C U60A A65G U78C | 0.16

Variant | self-cleavage
C17U A75G U80C | 0.41
A18G A21G A64G U80A | 0.16
A15U U54C A64G | 0.27
A18C A21U U67C A75U U80C | 0.02
G16U A20G G33A A35U U80G | 0.12
G16U U31C A35G U49G | 0.12
G16A A56U U58C U60G U72A U78C | 0.06
G16A U25A A28U U41C U49C C59U U66C | 0.03
A18C U26A U51A A56G U69C | 0.09
A15U U54C U76A | 0.96
A15U U26C U60C | 0.15
G16C U48A A75U | 0.06
A18G A28G A65U | 0.43
A15U U26A U41G A47G | 0.2
C17A U25C A28U A35G C40U A56G | 0.11
G16U G36C U43G U51C | 0.13
A15U U60G U72C | 0.16
A15U G19U A57G C62U | 0.05
G16U A20G U26G U76A U80C | 0.07
A18C C34U A45G A56G | 0.08
A15U G52A U69C | 0.21
A15U U48C U80C | 0.29
A15U U43A A47G A57G C62A U69C U76C | 0.2
C17U U26C U69C C81U | 0.06

Variant | self-cleavage
C17U A47G U67C A77U | 0.22
A15U U25C G53A U54C U78C U80A | 0.25
A18G A28G U66C | 0.1
C17U U31C U43A A65C U69C | 0.21
G16U A18C U80A | 0.21
C17U A47G U72A | 0.27
A18G A20U U58C U60C U72A | 0.12
G16A A20G C40U | 0.17
A15U C27U C32A C71U U74G | 0.07
C17A A21G U54G | 0.19
A15U G24A C39U | 0.19
C17U U54A G63A U66C | 0.21
A15U U43C U74C | 0.26
G16A G46U A57G | 0.33
A15U U25C U31A U51C U54A U76C | 0.08
A18G A20G A35U U58A U60A U72C | 0.04
A15U C34A U49A A56G | 0.18
C17A U25C A28U A35G C40U U41C | 0.06
G16A U25A U26C G33A | 0.06
A15U U43C U60C G70C U76C | 0.08
C17G A20G U26C U43C G53A | 0
A15U G30U G36A | 0.07
A18C A45G A47U A64U | 0.19
A15U C38A G42A | 0.05

Variant | self-cleavage
G16A C50U A56U U60C | 0.08
G16A U67C A77G | 0.06
A15U U51C U58A G73A | 0.1
C17A C23A A28G A35U | 0.26
A18C G19U A65U | 0.17
A18G A21G C32A A45G | 0.03
A15U U25C U67C U78C | 0.07
C17U U25A C34A U60A U67C U74A U80C | 0.05
G16C A21G U80C | 0.23
A15U U54A U58C U78C | 0.52
A15U U49C U76C A77C | 0.17
C17U A18G G63U | 0.4
A15U U31C A64G | 0.13
C17U U26C U31A | 0.08
A15U C40U A45U | 0.15
G16A C34U U69C | 0.1
A15U G61A A64G U80C | 0.12
A15U U48C U51C U72C | 0.25
G16A G36U U60C | 0.05
C17G A20G A47G U60A | 0.02
C17U U25C U43C A77G | 0.09
C17U U51G U67C | 0.13
A15U U31C U51G A57G C59U | 0.08
